{"source": "PubChem BioAssay (NCI)", "note": "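Cultured in 96-well plates, cells were exposed to test compound for 48 hours across five concentrations. GI50: concentration for 50% inhibition of growth. TGI marks complete inhibition of growth.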", "data": [{"tested_on": "NCI-H322M lung", "assay": "inhibition of tumour cell growth, NCI panel, 48 h", "units": {"GI50": "µM", "TGI": "µM"}, "values": [{"smiles": "COc1cc2c3c(n(CCCN4CCC[C@@H]4CO)c(=O)c2cc1OC)-c1cc2c(cc1C3=O)OCO2", "GI50": 1.26, "TGI": 2.73}, {"smiles": "COc1cccc(C(N)=Nc2ccc(OCCCCCCn3cncn3)cc2)c1", "GI50": 5.44, "TGI": "> 100"}, {"smiles": "Cc1ccc(S(=O)(=O)c2nc(S(=O)(=O)c3ccc(C)cc3)c(Cl)s2)cc1", "GI50": "> 100", "TGI": "> 100"}, {"smiles": "COc1ccc(-c2nc(Nc3ccccc3S(N)(=O)=O)c3ccccc3n2)cc1", "GI50": 18.4, "TGI": "> 100"}]}]}
